Assay results: PubChem BioAssay (Tox21)
Where “and” joins values, the source holds several entries; their conditions need not be identical. Identical values can stand only once. Inconclusive results, whose numbers are uncertain, are shown with a selection of clear calls. For part of these data: Potencies beside an inconclusive call are fits to weak or partial responses and may not hold up. Calls of active or inactive are those of the source. Unless noted, calls come from the whole dose curve; as a rule, active = well fitted curve in the direction sought with a large enough effect in the repeat runs; inconclusive = weak or mixed curves; inactive = no such curve, though single readings can be large; an effect the other way counts as inactive or inconclusive.

Legend:
[1] = target: Estrogen receptor beta (Homo sapiens) (UniProt Q92731); assay: qHTS assay to identify small molecule antagonists of the estrogen receptor beta (ER-beta) signaling pathway (AID 1259378; active = well fitted inhibition curve with a large enough effect in the signal ratio in the repeat runs, not every such curve was filed as active; inconclusive = weak or mixed curves, or effect the other way; inactive = no such curve, though single readings can be large or run the other way; the % refers to the signal ratio; for activity, negative = inhibition: % is set by controls: 0 for no effect and ±100 for the full control effect); details: ER-beta-UAS-bla HEK293T, beta-lactamase FRET ratio, 16 h
Sequence of UniProt Q92731 (Q92731 whole entry, looked up): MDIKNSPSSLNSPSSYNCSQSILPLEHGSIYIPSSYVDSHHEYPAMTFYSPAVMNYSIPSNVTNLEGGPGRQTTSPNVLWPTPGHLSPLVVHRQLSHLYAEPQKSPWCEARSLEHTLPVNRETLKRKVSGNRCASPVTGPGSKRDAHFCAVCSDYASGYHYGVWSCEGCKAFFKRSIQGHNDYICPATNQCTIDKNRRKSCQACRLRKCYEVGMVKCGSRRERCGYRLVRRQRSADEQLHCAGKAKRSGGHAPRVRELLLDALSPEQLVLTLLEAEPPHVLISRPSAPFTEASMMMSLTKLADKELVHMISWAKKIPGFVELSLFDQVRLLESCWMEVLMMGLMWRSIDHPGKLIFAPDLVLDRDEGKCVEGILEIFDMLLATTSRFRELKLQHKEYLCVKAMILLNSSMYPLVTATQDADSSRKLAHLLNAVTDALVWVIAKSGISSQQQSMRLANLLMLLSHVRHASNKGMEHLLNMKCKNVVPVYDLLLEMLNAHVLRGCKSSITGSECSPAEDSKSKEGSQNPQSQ
Procedure, shortened: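 ER-beta-UAS-bla HEK293T (GripTite) cells in 2% charcoal-stripped FBS medium were preincubated 6 hr at 37C, dosed with compound, then stimulated with 1 nM E2 (final) for 16 hr; beta-lactamase reporter read by B/G FRET fluorescence after 2 hr substrate loading.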

[2] = qHTS assay to identify small molecule antagonists of the estrogen receptor beta (ER-beta) signaling pathway - cell viability counter screen (AID 1259382); details: ER-beta-UAS-bla HEK293T viability, CellTiter-Glo luminescence, 16 h; series mostly up to 92.4 µM; note: nearly all actives have a fitted effect of over 55% in size
Procedure, shortened: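 Following a 6 hr plating period, HEK293T cells carrying a UAS-driven beta-lactamase reporter under ER-beta control received compounds and 1nM E2 (final). After 16 hr at 37C and 2 hr substrate loading, CellTiter-Glo luminescence indicated viability.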

[3] = target: Thyrotropin receptor (Homo sapiens) (UniProt P16473); assay: qHTS assay to identify small molecule antagonists of the thyroid stimulating hormone receptor (TSHR) signaling pathway (AID 1259385; calls by dose curve; note: nearly all actives have a fitted effect of over 20% in size); details: TSHR-HEK293 cAMP HTRF, TSH-stimulated antagonist mode; activity change, negative = inhibition: at 92.4 µM (top of the series) unless noted
Sequence of UniProt P16473 (P16473 whole entry, looked up): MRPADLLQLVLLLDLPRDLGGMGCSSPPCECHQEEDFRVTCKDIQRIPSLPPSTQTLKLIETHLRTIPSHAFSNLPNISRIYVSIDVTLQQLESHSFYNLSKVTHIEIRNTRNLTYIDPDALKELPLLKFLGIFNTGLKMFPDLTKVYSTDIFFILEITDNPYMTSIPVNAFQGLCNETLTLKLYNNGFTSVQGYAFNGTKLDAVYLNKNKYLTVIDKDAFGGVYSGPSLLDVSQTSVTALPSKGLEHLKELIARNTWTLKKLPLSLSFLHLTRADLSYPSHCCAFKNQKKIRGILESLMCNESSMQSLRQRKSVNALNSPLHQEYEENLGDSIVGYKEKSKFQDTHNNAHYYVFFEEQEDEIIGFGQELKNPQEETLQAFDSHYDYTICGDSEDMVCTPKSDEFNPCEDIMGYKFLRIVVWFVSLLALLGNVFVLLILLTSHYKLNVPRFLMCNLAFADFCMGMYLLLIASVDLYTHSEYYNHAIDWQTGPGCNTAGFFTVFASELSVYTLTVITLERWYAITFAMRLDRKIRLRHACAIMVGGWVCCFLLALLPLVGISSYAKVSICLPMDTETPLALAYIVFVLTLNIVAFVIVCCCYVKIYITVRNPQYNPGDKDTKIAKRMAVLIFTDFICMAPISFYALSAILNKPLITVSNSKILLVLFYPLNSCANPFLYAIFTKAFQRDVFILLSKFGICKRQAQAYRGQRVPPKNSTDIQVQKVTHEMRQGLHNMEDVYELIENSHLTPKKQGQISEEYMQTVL
Procedure, shortened: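 TSHR-HEK293 cells were plated and held 18 h at 37C/5% CO2, then given compound plus Ro20-1724 and stimulated with TSH at 1.5 ng/mL final. After 30 min at room temperature, cAMP was detected with cAMP-d2/anti-cAMP-cryptate (1 h) by fluorescence.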

[4] = target: Progesterone receptor (Homo sapiens) (UniProt P06401); assay: qHTS assay to identify small molecule antagonists of the progesterone receptor (PR) signaling pathway (AID 1346795; active = well fitted inhibition curve with a large enough effect in the signal ratio in the repeat runs, not every such curve was filed as active; inconclusive = weak or mixed curves; the % refers to the signal ratio; for activity change, negative = inhibition: % is set by controls: 0 for no effect and ±100 for the full control effect); details: PR-UAS-bla HEK293T, beta-lactamase FRET ratio, 16 h; activity change, negative = inhibition: at 92.4 µM (top of the series) unless noted
Sequence of UniProt P06401 (P06401 whole entry, looked up): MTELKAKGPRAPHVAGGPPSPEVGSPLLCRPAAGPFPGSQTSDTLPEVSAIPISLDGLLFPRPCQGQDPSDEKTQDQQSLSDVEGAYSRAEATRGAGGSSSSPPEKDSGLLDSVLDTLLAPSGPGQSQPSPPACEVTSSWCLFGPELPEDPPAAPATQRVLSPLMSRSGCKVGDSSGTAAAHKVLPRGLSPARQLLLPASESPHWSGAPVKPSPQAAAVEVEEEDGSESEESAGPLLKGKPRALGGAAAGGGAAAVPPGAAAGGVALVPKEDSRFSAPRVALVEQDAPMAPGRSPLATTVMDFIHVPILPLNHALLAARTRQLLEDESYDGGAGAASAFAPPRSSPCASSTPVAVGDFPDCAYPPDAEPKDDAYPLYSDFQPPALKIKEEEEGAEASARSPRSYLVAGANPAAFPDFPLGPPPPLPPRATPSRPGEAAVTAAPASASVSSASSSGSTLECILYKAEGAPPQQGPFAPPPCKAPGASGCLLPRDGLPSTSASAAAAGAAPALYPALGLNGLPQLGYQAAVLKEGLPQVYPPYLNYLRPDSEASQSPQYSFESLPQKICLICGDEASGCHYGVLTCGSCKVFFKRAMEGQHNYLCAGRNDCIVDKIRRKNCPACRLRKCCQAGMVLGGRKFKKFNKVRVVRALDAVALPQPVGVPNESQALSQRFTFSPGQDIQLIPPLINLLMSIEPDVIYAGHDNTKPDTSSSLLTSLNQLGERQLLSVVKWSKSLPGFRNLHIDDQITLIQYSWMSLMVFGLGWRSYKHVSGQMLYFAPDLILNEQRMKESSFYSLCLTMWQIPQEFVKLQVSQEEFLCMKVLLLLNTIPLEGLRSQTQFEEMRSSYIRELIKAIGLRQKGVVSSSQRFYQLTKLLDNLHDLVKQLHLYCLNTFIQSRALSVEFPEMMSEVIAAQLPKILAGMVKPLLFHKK
Procedure, shortened: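 PR-UAS-bla HEK293T cells with beta-lactamase reporter under UAS control, in 2% charcoal-stripped FBS, treated with compounds plus 1 nM promegestone (R5020, final) for 16 hr at 37C. Read-out: FRET beta-lactamase substrate fluorescence after 2 hr at room temperature.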

[5] = qHTS assay to identify small molecule antagonists of the progesterone receptor (PR) signaling pathway - cell viability counter screen (AID 1346798); details: PR-UAS-bla HEK293T viability, CellTiter-Glo luminescence, 16 h; series mostly up to 92.4 µM; note: nearly all actives have a fitted effect of over 50% in size
Procedure, shortened: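 PR-UAS-bla HEK293T cells, 3,000/well in 2% charcoal-stripped FBS medium, dosed with compounds plus R5020 agonist and incubated 16 h at 37C. Viability then measured in the same wells by CellTiter-Glo luminescence after 30 min at RT.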

[6] = qHTS assay to identify small molecule agonists of the progesterone receptor (PR) signaling pathway - cell viability counter screen (AID 1346799; calls by dose curve; note: nearly all actives have a fitted effect of over 45% in size); details: PR-UAS-bla HEK293T viability, CellTiter-Glo luminescence, 16 h; series mostly up to 92.4 µM
Procedure, shortened: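 Counter screen in the PR-UAS-bla HEK293T wells (2% charcoal-stripped FBS, 16 h compound exposure at 37 C) after the bla read. CellTiter-Glo added, 30 min at room temperature, luminescence read as cell viability.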

[7] = qHTS assay to identify small molecule agonists of the TGF-beta/Smad signaling pathway - cell viability counter screen (AID 1346829); details: SBE-bla HEK293T viability, CellTiter-Glo luminescence, 5 h; series mostly up to 76.8 µM; note: nearly all actives have a fitted effect of over 45% in size
Procedure, shortened: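 Here the cytotoxicity of library compounds is measured in SBE-bla HEK 293T cells treated for 5 hr, using CellTiter-Glo added to wells already read for the beta-lactamase reporter.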

[8] = qHTS assay to identify small molecule antagonists of the TGF-beta/Smad signaling pathway (AID 1346924; active = well fitted inhibition curve with a large enough effect in the signal ratio in the repeat runs, not every such curve was filed as active; inconclusive = weak or mixed curves; the % refers to the signal ratio); details: SBE-bla HEK293T, TGF-beta/Smad reporter, beta-lactamase ratio; for Potency: activity, negative = inhibition: at 76.8 µM (top of the series) unless noted
Procedure, shortened: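 SBE-bla HEK 293T cells were plated overnight, then received compound in DMSO plus TGF-beta1 (added as a 0.25 ng/mL solution) and were incubated 5 h at 37 C. Beta-lactamase reporter activity was read after 2 h at room temperature with LiveBLAzer B/G FRET substrate (ex 405, em 460/530 nm).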

[9] = qHTS assay to identify small molecule agonists of the androgen receptor (AR) signaling pathway in the presence of an antagonist - cell viability counter screen (AID 1259379); details: MDA-kb2 viability, CellTiter-Fluor, 16 h; series mostly up to 92.4 µM; note: nearly all actives have a fitted effect of over 25% in size
Procedure, shortened: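 Fluorescence from CellTiter-Fluor, added after 15 hr and read 1 hr later, gave cell viability. Cells were MDA-kb2 exposed to compounds (15 concentrations) in the presence of 3.0uM nilutamide at 37C, 0% CO2.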

[10] = qHTS assay to identify small molecule antagonists of the TGF-beta/Smad signaling pathway - cell viability counter screen (AID 1346824); details: SBE-bla HEK293T viability, CellTiter-Glo luminescence; series mostly up to 35.3 µM; note: nearly all actives have a fitted effect of over 50% in size
Procedure, shortened: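 SBE-bla HEK 293T cells were plated overnight at 37 C, then given compounds in DMSO plus TGF-beta1 (added as 0.25 ng/mL solution) for 5 hr. After the bla read, CellTiter-Glo was added to the same wells and luminescence read after 30 min at room temperature.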

[11] = qHTS assay to identify small molecule agonists of the TGF-beta/Smad signaling pathway (AID 1346859; active = well fitted activation curve with a large enough effect in the signal ratio in the repeat runs, not every such curve was filed as active; inconclusive = weak or mixed curves; the % refers to the signal ratio); details: SBE-bla HEK293T, TGF-beta/Smad beta-lactamase reporter, 5 h; activation: at 76.8 µM (top of the series) unless noted
Procedure, shortened: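 SBE-bla HEK293T cells plated overnight, then compound exposure for 5 h at 37 C. Beta-lactamase reporter read with LiveBLAzer B/G FRET substrate after 2 h at room temperature, fluorescence at 405 nm excitation, 460/530 nm emission.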

[12] = qHTS assay to identify small molecule agonists of the estrogen receptor beta (ER-beta) signaling pathway - cell viability counter screen (AID 1259380); details: ER-beta-bla HEK293T viability, CellTiter-Glo luminescence, 16 h; series mostly up to 92.4 µM; note: nearly all actives have a fitted effect of over 30% in size
Procedure, shortened: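 Same-well viability counter screen. Cells: ER-beta-UAS-bla HEK293T, plated 6 hr before compound, in 2% charcoal-stripped FBS. Compound exposure 16 hr, 37C; viability by CellTiter-Glo luminescence after 30 min at room temperature.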

[13] = qHTS assay to identify small molecule agonists of the estrogen receptor alpha (ER-alpha) signaling pathway in the presence of an antagonist - cell viability counter screen (AID 1259386); details: VM7Luc4E2 viability, CellTiter-Fluor fluorescence, 22 h; series mostly up to 92.4 µM;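 note: cells exposed to compounds for 22 h at 37 °C before the viability read; nearly all actives have a fitted effect of over 30% in size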
Procedure, shortened: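 Cells are starved of estrogens for 5 days in charcoal-stripped serum, seeded for 24hr and co-treated with ICI-182,780 (10.0nM final) and test compounds. After 22hr at 37C, viability is read as CellTiter-Fluor fluorescence.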

[14] = activity, negative = inhibition: at 92.4 µM (top of the series) unless noted
Potency is the fitted concentration of half-maximal effect; tags give direction and shape of the fitted curve or compound fluorescence and quenching.

## S=c1nc[nH]c2nc[nH]c12
[1]; at 42.5 µM (top of the series)
  activity, negative = inhibition: inconclusive: -37.8%
[1]; at 92.4 µM (top of the series)
  activity, negative = inhibition: inconclusive: -30.1%
[2]
  Potency: inconclusive: 9.45 µM [cytotoxic, partial curve] and inconclusive: 3.76 µM [cytotoxic, full curve]
[3]
  Potency: inconclusive: 23.7 µM [falling, full curve]
[4]
  Potency: inconclusive: 16.8 µM
  activity change, negative = inhibition: inconclusive: -48%
[5]
  Potency: inconclusive: 26.6 µM [cytotoxic, partial curve] and active: 8.41 µM
[6]
  Potency: active: 4.74 µM and active: 11.9 µM
[7]
  Potency: inconclusive: 2.69 µM [cytotoxic, full curve] and inconclusive: 6.01 µM [cytotoxic, full curve]
[8]; at 35.3 µM (top of the series)
  activity, negative = inhibition: inconclusive: -41.7%
[8]; at 76.8 µM (top of the series)
  activity, negative = inhibition: inconclusive: -35.2%

## O=C(O)c1cc(O)c2ccccc2c1O
[1]; [14]
  Potency: inconclusive: 68.6 µM [inhibitor, single point]
[9]
  Potency: active: 54.5 µM
[2]
  Potency: inconclusive: 61.1 µM [cytotoxic, partial curve, poor fit]
[3]
  Potency: inconclusive: 54.5 µM [falling, partial curve]
[4]
  Potency: inconclusive: 68.6 µM [falling, single point]
[10]
  Potency: active: 4.9 µM
[11]
  Potency: inconclusive: 19.5 µM

## O=C(NOCC1CC1)c1ccc(F)c(F)c1Nc1ccc(I)cc1Cl
[1]; [14]
  Potency: active: 8.41 µM
[9]
  Potency: active: 29.8 µM
[12]
  Potency: inconclusive: 2.37 µM [cytotoxic, full curve, poor fit]
[13]
  Potency: inconclusive: 33.5 µM [cytotoxic, single point]

## CC[C@@]1(c2ccccc2)NC(=O)N(C)C1=O
[1]; [14]
  Potency: inactive

## Cc1cc(N)c(S(=O)(=O)O)cc1Cl
[1]; [14]
  Potency: inactive

## O=C(CCS)OCC(COC(=O)CCS)(COC(=O)CCS)COC(=O)CCS
[1]; [14]
  Potency: inactive
[9]
  Potency: inconclusive: 24.3 µM [cytotoxic, partial curve]
[12]
  Potency: inconclusive: 0.243 µM [rising, single point]

## COC(=O)[C@H]1[C@H]2C[C@@H]3c4[nH]c5cc(OC)ccc5c4CCN3C[C@H]2C[C@@H](OC(=O)/C=C/c2ccc(O)c(OC)c2)[C@@H]1OC
[1]; [14]
  Potency: inconclusive: 21.1 µM [rising, partial curve]
[9]
  Potency: inconclusive: 23.7 µM [cytotoxic, single point]
[12]
  Potency: active: 8.41 µM
[2]
  Potency: inconclusive: 8.41 µM [cytotoxic, full curve]
[5]
  Potency: inconclusive: 21.1 µM [cytotoxic, partial curve, poor fit]
[6]
  Potency: inconclusive: 1.33 µM [rising, partial curve]
[11]
  Potency: inconclusive: 23.9 µM
[8]
  Potency: inconclusive: 26.8 µM [rising, partial curve, poor fit]

## CNS(=O)(=O)c1cc(C(=O)N2CCC(CCN3C4CCC3CC(n3c(C)nc5ccccc53)C4)(c3cccc(F)c3)CC2)c(Cl)cc1F (stereo unspecified)
[1]; [14]
  activity, negative = inhibition: inconclusive: -57.9%
[9]
  Potency: inconclusive: 7.7 µM [cytotoxic, full curve]
[12]
  Potency: active: 5.45 µM
[2]
  Potency: active: 7.7 µM
[4]
  Potency: inconclusive: 5.45 µM [rising, full curve]
[6]
  Potency: active: 5.45 µM
[8]
  Potency: inconclusive: 3.47 µM [fluorescent, partial curve]

## CC(C)=CCC/C(C)=C/CC/C(C)=C/CCC(=O)OC/C=C(\C)CCC=C(C)C
[1]; [14]
  Potency: inactive

## Nc1ccccc1O
[1]; [14]
  activity, negative = inhibition: inconclusive: -34%
[9]
  Potency: inconclusive: 60.3 µM [cytotoxic, single point]
[12]
  Potency: inconclusive: 9.56 µM [cytotoxic, full curve, poor fit]
[13]
  Potency: active: 67.7 µM
[4]
  activity change, negative = inhibition: inconclusive: -24.4%
[5]
  Potency: inconclusive: 60.3 µM [rising, single point]
[6]
  Potency: inconclusive: 67.7 µM [rising, single point]

## CC(C)(C)C(=O)C1C(=O)c2ccccc2C1=O
[1]; [14]
  Potency: inconclusive: 54.5 µM [rising, partial curve, poor fit]
  activity, negative = inhibition: inconclusive: -44.4%
[9]
  Potency: inconclusive: 54.5 µM [cytotoxic, partial curve]
[12]
  Potency: inconclusive: 15.4 µM [cytotoxic, full curve]
[3]
  Potency: inconclusive: 68.6 µM [falling, single point]
[13]
  Potency: active: 60.5 µM and active: 61.1 µM
[4]
  activity change, negative = inhibition: inconclusive: -29.2%
[6]
  Potency: inconclusive: 77 µM [rising, single point]

## O=C(O)c1cn(C2CC2)c2cc(N3CCNCC3)c(F)cc2c1=O
[1]; [14]
  activity, negative = inhibition: inconclusive: 10.3% [at 42.5 µM]

## CN1CCCN(C(c2ccccc2)c2ccc(Cl)cc2)CC1 (stereo unspecified)
[1]; [14]
  activity, negative = inhibition: inconclusive: -50.2% [at 42.5 µM]
[9]
  Potency: active: 26.6 µM
[12]
  Potency: active: 13.3 µM
[13]
  Potency: inconclusive: 29.8 µM [cytotoxic, partial curve]
[4]
  Potency: active: 21.1 µM
[5]
  Potency: active: 15 µM
[6]
  Potency: active: 13.3 µM
